The list shows a part of the results. At the low end of the ranking the order means little. Measured with an extract: partners may take part in the binding.
Biological target: T1, HNF4alpha2 (COS-7 nuclear extract) (UniProt P41235)
T1 sequence: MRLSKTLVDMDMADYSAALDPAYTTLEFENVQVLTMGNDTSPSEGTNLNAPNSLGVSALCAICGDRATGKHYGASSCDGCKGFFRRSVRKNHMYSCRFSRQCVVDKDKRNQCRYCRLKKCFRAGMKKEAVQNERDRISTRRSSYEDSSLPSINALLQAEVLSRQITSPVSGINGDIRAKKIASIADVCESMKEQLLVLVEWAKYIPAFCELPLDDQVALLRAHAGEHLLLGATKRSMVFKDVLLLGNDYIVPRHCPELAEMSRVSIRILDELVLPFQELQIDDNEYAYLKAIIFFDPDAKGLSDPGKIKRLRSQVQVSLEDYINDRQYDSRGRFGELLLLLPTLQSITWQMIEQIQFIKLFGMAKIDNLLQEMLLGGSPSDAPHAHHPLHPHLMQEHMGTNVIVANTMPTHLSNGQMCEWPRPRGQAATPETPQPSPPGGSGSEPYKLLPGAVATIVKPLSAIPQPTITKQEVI
Assay: protein-binding microarray
Conditions: COS-7 nuclear extract on double-stranded Agilent 4x180k PBM; binding buffer, salt, pH and temperature not given; high values mean tight binding; double strand, one strand shown; sequences stand for … in …GCCTAGGGAGATTAGAGTATCGGTCGA

Sequence | binding signal (log2 normalized intensity)
CTTTCCTGGGCCTTAAAGCATGACAAAATA | 0.784
TCTGCTGGGCCTTCAGCTTGAAAACACAAC | -1.17
ACTCGGAGGACTGAGCCCGCTCCACTCCGG | -1.13
TTCCACAAACACAGATCAGATATGAGATTC | -1.14
ACTTCCAAAGCCCCTTTCCACTCTACCGTC | 1.54
CCGCCCACCCTTTTTTTTCTTTCTTTTCCC | 1.54
GGTGAAATAGCTGAACTATTTAAGGCCTTT | 0.822
CACATTCCATTCTCACTGACTCACGGCAGC | -1.21
TTGCATCTCCTCCTCCCATTCCAGCTCTTT | 1.33
GAAACATGACACCCATCATGAGTAGGTTTA | -0.164
GGCTGCTTCACACAAACATCACCTACCTGA | -1.14
CCTTTGTGTTTATGGCAAATTGATATCCTG | 1.8
TACCAAGGAGTGGACTGTTCAAGACCAAAG | -1.06
CTGCATGAAAGTTCTCTGGGCTTTTTGATC | 1.51
TTCTTAACAAGCTGAGCACCAGAAACCTGC | -1.07
GATCTGGGTTTGACCGTTCTCTCCGGGTAA | 1.25
CATTTGGAGAGAGTTTGGCCCCAGTTCCCA | 1.67
TTTCACAGTCGATCTTTGACCGCTGCCTCC | 4.23
TGCTGCTCTAGATGAGGGGGAAAGGGGTTG | -1.13
ACTGACCTTGTTGCCCACCCCCCAAGTAGA | 5.96
TCATGGAGGTGTGGGGAGTTCCTTCAGACC | -0.641
TTAGGAAACCTGGTAGCGTGTAGTAAAGCT | -1.14
AACCAAAGTAGAGGAATGCTGGTAAACACT | -1.04
CATCCAACTCCTTGAGAAGTACAACTTCAG | -1.15
AAAGGAGCTGGGCCTGTGCTGGGGACAAAA | -1.09

Sequence | binding signal (log2 normalized intensity)
ACAAGGAGTCTCCACTATGACCTGTGCTTT | 1.22
CAGCATGTTATCAGTTAATTGCATTCTTTG | 0.488
CCGTCGGCACACACGCATGGCCGGCAGCAG | -1.12
GTCACAGCAAAAGTAGCCTGGTCAGGAACA | -1.14
TGAGTAATGTGAAGACTTCGCTGGAATGTC | 0.286
CCAAACAGAACAAAGTCCAGTAAGGACAGT | 2.51
ACTAGCTCCATGTGAGTCACAAACAGTACT | -0.313
GCTCTGTAAGGAGGATCAAGTGTGCACACT | 3.12
CAAACAAAGGCACTTCTCTCTCCAAGGCAC | -1.18
GGAGTGCTCCCGCCTGACCTGGCCCCTGAG | 0.791
ACAAGGAATTGGAATTGGGAGGACAGATAA | -0.85
TATTGCCCTCAGGGTTTAGGCCTGGGACCT | -0.673
TTTGCTCCAGTTCCCAATAATTTCCTTATC | -0.628
TTCCAATAAACTTCATTTACCAAAAAACAG | -0.884
TCAGCACACTCTGGTACCATGGATGCACTC | -0.163
TAGTCCTATCACTGTCTAGCTGTGTAACCC | 1.86
TACAGACTTTCAACAAGGTGGAGACCTCTG | -0.777
ATGGAGATGGAGATGGCCTGGAGGTACCTA | -1.11
ACCCCAAAACCCCCAAAGGTGAGTAGGGCC | 2.67
TAGTACGCTCCCTGTGCCCACTTTCCTGGG | -0.763
TGATCACAAAGCCTGGGGTTTGGCTCCAAG | -1.12
ACCTGACAGGCTGAGGATCTAATGCACCCA | -1.12
ACCTGCAAACCTTTGACCTTTCCATAGTTC | 4.95
CTTCGCTGGAATGTCACAGGGATTACGATC | -0.148
TTCTCTGAGGTAGTTGAGTGCCTCCATTTC | 0.148

Sequence | binding signal (log2 normalized intensity)
TTAGCCCAGTGAGACCCATTTTGGACTTTG | 6.34
TCTCCTCCTCCCATTCCAGCTCTTTACTCA | 0.713
AAGACATTGCCTGGCATTATCAGTGCTGCC | -0.683
ACAATTTTCAAGAACAAACAAATTTAGCAA | -1.17
TTACAAAAGAAGAAGATGATATGGTCAGTG | 1.3
ATGGAGCTAAACAATTAAAGAACTCTTCAT | -1.01
GTTATCTTGGGGCTGATATCTCTCTGGCTG | -0.733
GGTAAATATTATCATTGCCTCTGGTATGCA | 0.714
GGGTTTGGCTCCAAGGCTGAAGGTCTCGAG | -0.624
ATGAGTTCCCGGCAAGCCGACTTACAGGAC | -1.23
ATAATTCAGTTTCATTGCACTTTGCCCTCT | 8.65
GACCTTTGAACACCACAAGTTTGAACTGCA | 5.05
GTGTGCCCCACTTATCTGCTATTCTGGCAA | -1.24
TGGACTTTGGTCCTGGTCAGACTTGCCACG | 4.5
TCTCTAGATCTCAGTTGGTCCAAGGTACAT | 3.18
GTGAATCCTTAAGATTCCTGCTCTAATGTT | -0.0894
ACATTGTTAGCATAGCCTATCTGGTGCAGT | 1.01
CAGTAACTCACTATCAGGAAACTCTTTCCT | -1.11
AGTAGAAGAGCCAAAATGTGTTAGGCAAGC | -1.17
TTCTCCTCCAGGACCTTGCCCTTTAGTTAT | 3.87
CTCAAGGAGGCCCAAAGGAAGGACTTCAGG | -1.12
GTATTTTTTCAACATATACTTTGAACTTGT | 3.47
CAGGGTTGTGCAGGACTGCGTAACTTACAG | -0.877
GCCACCTGAAGGCAGGTGTGGGTTGGGGGT | -0.893
ACTTCAAGGTCCATTTGAGGCTAAGTGTAG | 0.989

Sequence | binding signal (log2 normalized intensity)
ATCAGAGCAAAGTTCAATTTCCAACAAATG | 2.67
TTCCAATCTGGTGAAAGATGATGAGGCGGT | -1.05
ATATTATGTTTTGTTATCTGTGCCACAGGT | 1.44
GTCCTGGTCACAGTAACAGGGAGTCTGTTG | 0.215
CAAACACAGATAGCATAATCAAAGAGAAAA | -1.05
CCTCATCTGTGTAGAAATTGTGGCTTGTGT | 2.2
CTGTGGTCTAGCTTGTTCTCTCCCCCAACC | 4.15
GGACAGAGATAACTGGGGGCATAGCCCATG | -1.17
GCGATCCGGGCTCCGGGCGCCGCGCGCGCC | -1.11
GGTATCCACAGGAGGCCCCATCGCACGGCA | -1.14
GAGGTGACTTGTCCTGAGATAAGTCACCTT | -0.66
GAGGAGAATTGGCATTAATTCTTCTTTGAA | -0.987
GATGCTGGACTTCAGCCTCCAGAACTATGA | 2.41
GAGAGGCTGCCATCCCACATTCCACAGACT | -0.961
GCAAACACCTGGCCAGCGACTTTAGGGGCC | -1.12
GACGGCTAAGAGAAATCCACACAGCACTGA | -1.21
AAGGTCAGTTTCTTTAAGACAAGTGTCCCT | 1.58
GATCCAACTCTGAAGATTCACAGGTGGGAT | -1.13
ACTCTCTCTCTGTGTCACATACACCTGCGT | 1.08
TCCTGTCCACCCTGAAAGAGAGGAGGCTGA | -1.14
CTTACGGCCCTGTGGTGTTCGCTAAGATGT | 0.637
AGCTGCCCTTTGCACATGCCCCTCCCAGGG | 2.6
TGAAGTGAGTTGTTTGTTTTGAGATAGGGT | 1.85
AAAAATCTCACTCACCCTAAGCCCTGCTCA | -0.982
CCAAATTCTTTTTTTTTTTTTTTTTTTTTT | 3.38

Sequence | binding signal (log2 normalized intensity)
CAAGGTAAACATGATGAAAGCAATGTTTGA | 1.16
CAGACGGATTCCACGGGGGTGCAGCCAAGT | -1.21
ATGCTGATGGGGACCACAGAGAACTAATCT | -1.12
GGAAATCCCGAAATAGAGCCAAACATGATA | -1.07
CCCAGCCAGAATTCTCCCTGCAGTCCTCTG | -1.11
TGTACCCGTCCACCTTTGGATCCAGCTCCT | 1.77
ACCCTGACTCTGCAGCCGAACCGGCACGGT | -1.14
TTAATATATGAAGATGGGCATTAGGTGGAC | 0.991
CACAGTGGGGCAGATCACAAGCACCCCCCA | 4.01
GCTTCCAGTTAAGCAGGTTCACATTTTTGT | 1.17
AACAGGAATTCAAAGGTGCAAAGGTTAAAA | 5.35
AACTTTGGACCACATATAGAGAAGCCAGGG | -1.17
ACCAGGGGGCAGAGTGAGCAGCACTTTTGG | -0.845
CGGGAATCTGACCTTTGGGACATTCCCCAG | 4.61
GGGGTCTGGTTTCTAGGTAGATAAGGGAGT | 1.29
TGGATTACATACCCAAGTTCCCTCTCAGGA | 0.505
TAATTCTTCTTTGAAAGTTTGGTGGACTTT | 6.32
TTGACTGAGGTGCAGGACAAAGTGTGCACT | 0.151
GAGGGTGGGTTCAAAGGTCAGAAAAAGCTG | 6.66
GGGGGCGTTCCCCGAGCGAGCTCCGTGCGG | -1.13
TGGCATGTATAATGACACTAGCAGAAGAGA | -1.08
CAGAAGACCCTTGGCCTCTACAGCTACTCC | -1.1
AAACAAGGCCAAAGTCTGGCAAATGAAATG | -0.544
TCAGAGATCAAGATACAGGTCAGACCCTGG | 0.993
ATAGTTGACCCTTGAACAATGTGGGGGTCG | 3.7

Sequence | binding signal (log2 normalized intensity)
GTAAGGCCCGTGAGATTGAAAGCTAAGGCA | -1.16
TGAGGGAGGGAGGAGGGACTGAACAGATAT | -1.12
GGGCCATTCCTCTATCTCCCTGTGACCTCC | 3.72
CCTGTTTGCTTCTGCCCCCTGGAGGAGCAA | 2.67
CGGCATTCTCTGGTCTGCGGTTGTGTAGAC | 1.57
AAGATAATGACTAAGGCAGGGAAGGAGAGT | -1.19
CAGTCACAGCAGTGGACTTTGACCTTGGCA | 10.2
CACCCTGCTGTAAATAAAATGAGATTCCTT | -0.457
GACCTTGGCACTGAAGAATGTCTAAATCTG | 0.492
TCTGAAGATAAATGCCTTAGCTGTGACCAT | 0.619
TAATCTGCTTCCAGTTCCATAATCCCCGAA | 2.9
AGGAAGTGTGCACAAGTCCTCACAATAATG | -1.05
GGCCCTCTAGTCTAGTCCAAACTGCAACCT | 0.759
GCAGGGGATGCCCTTTGACCTCTGCTTCCT | 8.18
GCAGACTTGGATTTTCTCATCCCAGGGATA | -0.778
ATGGGGACTTTGGACTCCTGTTTGAACAAA | 4.84
TGAGAGGAATGAGCAGGAACCTTGTGGTGG | 0.29
AAACCAAAGCTGGAGTGCAGTCCCCGGCTG | -1.04
ACAATGGCATTTCACAGAGCAAGGGTCCAG | 2.12
TCCTGAGTCCACATGAGCCTCTTTATCTCT | -1.1

From article PMC10726135
